The results in this text go back to paper PMC4336329 (PLoS ONE, 2015).

SMILES strings stand for the structures. In all, about 310,000 compounds went through this assay and about 2,200 (0.71%) showed an effect of 50% or more. Effects have a minus sign here. Some of the results follow.

Sequence of human ether-à-go-go-related gene (hERG) potassium channel (Q12809 whole entry, looked up): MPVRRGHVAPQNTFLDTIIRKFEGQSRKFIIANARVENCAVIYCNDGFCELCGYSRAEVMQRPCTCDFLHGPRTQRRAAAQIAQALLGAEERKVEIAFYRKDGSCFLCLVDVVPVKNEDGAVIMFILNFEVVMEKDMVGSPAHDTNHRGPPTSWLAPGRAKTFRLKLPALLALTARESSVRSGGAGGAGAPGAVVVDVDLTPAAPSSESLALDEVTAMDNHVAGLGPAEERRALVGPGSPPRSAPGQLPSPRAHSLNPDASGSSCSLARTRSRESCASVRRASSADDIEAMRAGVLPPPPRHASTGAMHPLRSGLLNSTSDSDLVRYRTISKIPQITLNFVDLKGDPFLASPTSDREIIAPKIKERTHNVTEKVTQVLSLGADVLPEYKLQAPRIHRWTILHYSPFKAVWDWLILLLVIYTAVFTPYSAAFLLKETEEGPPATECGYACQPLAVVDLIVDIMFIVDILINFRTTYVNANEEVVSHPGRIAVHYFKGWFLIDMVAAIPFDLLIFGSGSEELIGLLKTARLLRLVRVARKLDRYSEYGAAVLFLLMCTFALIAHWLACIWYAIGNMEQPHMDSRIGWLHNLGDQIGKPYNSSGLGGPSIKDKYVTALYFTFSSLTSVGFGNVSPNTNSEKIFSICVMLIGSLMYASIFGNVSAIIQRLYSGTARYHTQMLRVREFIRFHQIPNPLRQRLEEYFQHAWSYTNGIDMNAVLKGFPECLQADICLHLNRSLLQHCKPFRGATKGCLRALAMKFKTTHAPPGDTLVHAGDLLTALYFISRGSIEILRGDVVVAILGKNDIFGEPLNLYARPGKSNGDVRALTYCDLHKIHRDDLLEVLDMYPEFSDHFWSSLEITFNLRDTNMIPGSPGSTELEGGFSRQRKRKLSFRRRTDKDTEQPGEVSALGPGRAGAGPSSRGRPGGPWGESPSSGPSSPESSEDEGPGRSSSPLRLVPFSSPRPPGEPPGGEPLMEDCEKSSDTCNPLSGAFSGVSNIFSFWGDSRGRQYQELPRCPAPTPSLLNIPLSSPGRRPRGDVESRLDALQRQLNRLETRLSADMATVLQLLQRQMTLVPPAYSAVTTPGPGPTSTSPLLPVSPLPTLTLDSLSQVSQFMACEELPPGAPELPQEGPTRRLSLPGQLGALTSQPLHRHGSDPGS

This assay concerns the target human ether-à-go-go-related gene (hERG) potassium channel (human, UniProt Q12809). Briefly: primary screen, population patch clamp on CHO cells stably expressing hERG.
For `Cc1nc2ccccc2c2c(N)c3ccccc3n12`, the “hERG current change (%, negative = inhibition) at 1uM” value was 14.4%.

With `Cc1c([N+](=O)[O-])c2ccc(O)cc2n1-c1ccccc1`, the “hERG current change (%, negative = inhibition) at 1uM” value was found to be 8.82%.

In the case of `NS(=O)(=O)c1ccc(NC(=O)COC(=O)c2cc(Cl)ccc2[N+](=O)[O-])cc1`, the “hERG current change (%, negative = inhibition) at 1uM” value amounted to 6.38%.

As for `COC(=O)c1sc2nc(N3CCCCC3)c3c(c2c1N)CCCC3`, the “hERG current change (%, negative = inhibition) at 1uM” value came to 21.3%.

As for `O=C1c2cccc3cc([N+](=O)[O-])cc(c23)C(=O)N1c1ccccc1O`, the “hERG current change (%, negative = inhibition) at 1uM” value came to 16.2%.

Take `Cc1nnc(SCC(=O)Nc2cc(S(C)(=O)=O)ccc2Cl)n1Cc1ccccc1`: the “hERG current change (%, negative = inhibition) at 1uM” value is 11.2%.

Take `CCc1nnc(NC(=O)CSc2nc3c(cc2C#N)CCCC3)s1`: the “hERG current change (%, negative = inhibition) at 1uM” value was 15.4%.

Regarding `CCN(CCC#N)c1ccc(/C=N/Nc2nc(C)cc(=O)[nH]2)c(C)c1`, the “hERG current change (%, negative = inhibition) at 1uM” value was -5.5%.

Take `O=[N+]([O-])c1ccccc1SNc1ccccn1`: the “hERG current change (%, negative = inhibition) at 1uM” value is recorded as 13.6%.

Regarding `COc1ccc(NC(=O)COC(=O)C2CC2)c(OC)c1`, the “hERG current change (%, negative = inhibition) at 1uM” value was -18.4%.

For `CC(NS(=O)(=O)c1ccc(Cl)c(Cl)c1)C(=O)OCC(=O)N1CCCCCC1` (stereo not drawn), the “hERG current change (%, negative = inhibition) at 1uM” value is -9.64%.

For the compound `O=C(Nc1ccccc1)c1cc2ccc3ccccc3c2s1`, the “hERG current change (%, negative = inhibition) at 1uM” value was determined as 15%.

In the case of `CC12CCC(C/C1=N/OC(=O)c1cccc([N+](=O)[O-])c1)C2(C)C` (stereo not drawn), the “hERG current change (%, negative = inhibition) at 1uM” value is recorded as 14.6%.

`O=C(Nc1cccnc1)c1ccc(S(=O)(=O)c2ccccc2)cc1`: the “hERG current change (%, negative = inhibition) at 1uM” value was 12.5%.

With `CCN(CC)C(=O)c1cc(Cl)ccc1NC(=O)c1ccco1`, the “hERG current change (%, negative = inhibition) at 1uM” value came out at 6.5%.

For the compound `O=c1cc(CN2CCc3ccccc3C2)nc2sccn12`, the “hERG current change (%, negative = inhibition) at 1uM” value is given as 11.6%.

On to `CCc1ccc(OCC(=O)N2CC(C(N)=O)Oc3ccccc32)cc1` (stereo not drawn), for which the “hERG current change (%, negative = inhibition) at 1uM” value turned out to be 9.25%.

On to `Cc1ccc(NC(=O)CCN2C(=O)C3C4CCC(C4)C3C2=O)cc1[N+](=O)[O-]` (stereo not drawn), for which the “hERG current change (%, negative = inhibition) at 1uM” value amounted to 7.27%.

As for `Nc1ccc(C(=O)[O-])cc1.[K+]`, the “hERG current change (%, negative = inhibition) at 1uM” value is recorded as 19.1%.

Regarding `Cc1ccccc1NC(=O)c1ccc2nccnc2c1`, the “hERG current change (%, negative = inhibition) at 1uM” value stood at 4.5%.

Turning to `Cc1cccn2c(=O)c3cc(C(=O)NCC4CCCO4)c(=N)n(C4CCCC4)c3nc12` (stereo not drawn), the “hERG current change (%, negative = inhibition) at 1uM” value is reported as -80.3%.

`OCCSc1ncnc2c1oc1ccccc12`: the “hERG current change (%, negative = inhibition) at 1uM” value came out at 6.8%.

For the compound `Cc1cccc(NC(=S)NNC(=O)CCn2nc(C)c([N+](=O)[O-])c2C)c1`, the “hERG current change (%, negative = inhibition) at 1uM” value turned out to be 7.94%.

Take `Cc1cc(NC(=O)C2CC(=O)N(c3ccccc3Cl)C2)no1` (stereo not drawn): the “hERG current change (%, negative = inhibition) at 1uM” value is reported as 8.84%.

Regarding `COCCNc1nc2c(c(=O)n(Cc3cccc(Br)c3)c(=O)n2C)n1C`, the “hERG current change (%, negative = inhibition) at 1uM” value is listed as 9.1%.

As for `CCc1ccc2nc3nc(C)cc(C)c3c(N)c2c1`, the “hERG current change (%, negative = inhibition) at 1uM” value worked out at 3.04%.

`COc1cccc(OC)c1C(=O)Nc1ccccc1N1CCCC1`: the “hERG current change (%, negative = inhibition) at 1uM” value is recorded as -4.17%.

For `CCN(CC(=O)Nc1ccc(C(=O)OC)cc1)C1CCCCC1`, the “hERG current change (%, negative = inhibition) at 1uM” value is on record as 16.3%.

`CCOC(=O)c1cc2ccccc2n1CC(=O)c1ccccc1`: the “hERG current change (%, negative = inhibition) at 1uM” value is 10.1%.

For `Cc1cc(/C=C2\C(=O)NC(=O)N(Cc3ccccc3)C2=O)c(C)n1-c1ccc(Cl)c(C(=O)O)c1`, the “hERG current change (%, negative = inhibition) at 1uM” value turned out to be 5.21%.

With `O=C1Cc2ccccc2C(=O)N1OCc1ccc(Cl)cc1`, the “hERG current change (%, negative = inhibition) at 1uM” value is reported as 9.57%.

On to `CC1CCCC(C)N1C(=O)CN1C(=O)C(C)(C)Oc2ccc(C(=O)NC3CCCCC3)cc21` (stereo not drawn), for which the “hERG current change (%, negative = inhibition) at 1uM” value is 8.44%.

Regarding `O=C(CSc1nc2[nH]c(=O)cc(O)c2s1)Nc1nccs1`, the “hERG current change (%, negative = inhibition) at 1uM” value came out at 11.7%.

In the case of `CCCN(CC(=O)Nc1ccccc1OC)C(=O)c1ccc2ncsc2c1`, the “hERG current change (%, negative = inhibition) at 1uM” value was -0.49%.

As for `Cc1ccc(S(=O)(=O)N2CCN(S(=O)(=O)N3CCC(C)CC3)CC2)c(C)c1`, the “hERG current change (%, negative = inhibition) at 1uM” value is on record as 9.41%.

`CCOC(=O)C1=C(CNCCc2ccc(Cl)cc2)NC(=O)NC1c1cccc([N+](=O)[O-])c1` (stereo not drawn): the “hERG current change (%, negative = inhibition) at 1uM” value turned out to be 15%.

`Cn1c(SCCS(=O)(=O)c2ccc(Cl)cc2)nnc1-c1ccccc1`: the “hERG current change (%, negative = inhibition) at 1uM” value is listed as 12.8%.

In the case of `CNC(=O)Nc1ccc(S(N)(=O)=O)cc1`, the “hERG current change (%, negative = inhibition) at 1uM” value was 12.3%.

Take `COCc1c(C(=O)N/N=C/c2cccc3ccccc23)nnn1-c1nonc1N`: the “hERG current change (%, negative = inhibition) at 1uM” value is 8.15%.

As for `CCC1(C)Cc2nc3[nH]c(=S)n(-c4ccccc4C)c(=O)c3cc2CO1` (stereo not drawn), the “hERG current change (%, negative = inhibition) at 1uM” value is listed as 13.6%.

In the case of `CCC1CCCCN1C(=S)Nc1ccc(S(=O)(=O)Nc2ncccn2)cc1` (stereo not drawn), the “hERG current change (%, negative = inhibition) at 1uM” value is 7.62%.

As for `Cc1ccc(S(=O)(=O)N(C)c2ccc(C(=O)Nc3cccc(C)n3)cc2)cc1`, the “hERG current change (%, negative = inhibition) at 1uM” value came out at 7.73%.

With `COCCN(C(=O)COC(=O)c1c(-c2ccccc2)noc1C)c1c(N)n(Cc2ccccc2)c(=O)[nH]c1=O`, the “hERG current change (%, negative = inhibition) at 1uM” value was -49.1%.

Take `O=C(Cn1cnc2ccccc21)N/N=C/c1ccccc1[N+](=O)[O-]`: the “hERG current change (%, negative = inhibition) at 1uM” value was 12.8%.

Take `CCN(CC(=O)Nc1c(F)cccc1F)C(=O)c1ccc(=O)n(Cc2ccccc2)n1`: the “hERG current change (%, negative = inhibition) at 1uM” value is reported as 7.76%.
